# ± gives the standard deviation of the averaged measurements. This is one part of the list.
# System: PfAP2-I AP2 domain 3 (GST-tagged)
# Experiment: gcPBM binding intensity (ln(normalized median fluorescence intensity)); higher = stronger DNA binding
# Method in brief: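 Each value is the highest Masliner-normalised natural-log median intensity across replicate spots of either orientation of a probe. The probes were primer-extended double-stranded 36-bp intergenic genomic sequences on an Agilent 4 × 180k array, alongside negative controls, exposed for 1 h to GST-tagged P. falciparum DNA-binding domains expressed in E. coli. Bound protein was picked up with Alexa488 anti-GST antibody and scanned at 488 nm.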
row,Sequence,gcPBM binding intensity (ln)
1,TATTCATGCATATACACACACATATATATATATTTT [CACACA_site3955],8.45 ± 0.58
2,AATGAAAAATTGTAATGTACATAAATAAATAAATAA [XGTACX_site4048],8.5 ± 0.96
3,ATCATAATTTATTATACACACAATACGTGACCTATT [CACACA_site6977],8.06 ± 0.47
4,AAAAAAAAATTAAACATACACACGTTACTATTTTTA [CACACA_site1687],7.37 ± 0.53
5,TATATGTGATAACACGCACACAAATGTATATAATTT [CACACA_site2593],8.1 ± 0.28
6,ATAAAATAAAAATTCTGTACAGAATTAAAAAAATAT [XGTACX_site6961],7.93 ± 0.71
7,AAAAAAAAAAAACATACACACATTGAACTTTTATAT [CACACA_site3250],7.59 ± 0.58
8,AAAAAAAGTAAAAAGTGTACTTAATATATATATATA [XGTACX_site838],9.18 ± 0.085
9,TGTAGCATTTAATTCACACATAAAAAATGTATCCAT [CACACA_site4986],7.62 ± 0.3
10,ATATATATATTTAAGGTGCGATTTTGTTATATTTAA,9.09 ± 0.24
11,TTTTTATTAGGACATGCATACAAAATTAAAAAAAAT [TGCATGCA_site258],8.11 ± 0.57
12,CTTATTTTATGTTATACACACAAAGAAAAAAAATAA [CACACA_site2165],8.1 ± 0.47
13,TTATTAAAATATTAAAGTACAAAAAAAATAAATAAA [XGTACX_site6507],7.84 ± 0.45
14,TTATGTATATTATAAATTAATACATTTAAATTAATA [CACACA_negctrl_site34],7.24 ± 0.26
15,GTATATAATTTATGTGCACACACTCCTATTTTTAGC [CACACA_site49],10.2 ± 0.19
16,AATTATATTAATATATAATAAAATAGGATGTTATTT [XGTACX_negctrl_site309],7.86 ± 0.42
17,TATTAATTTATTTGTTGTACGTAAATATGCTTGTTT [XGTACX_site6591],7.83 ± 0.32
18,AAAAAAAAAAAAAATTGTACCCAAATATTTTTGTAG [XGTACX_site8303],7.92 ± 0.64
19,GACATATATAGCAATCGTACATATATTATAAAAGGT [XGTACX_site6891],8.19 ± 0.61
20,TTTAATCAATGATTTAATGAAAAAAGCAAAAAAAAA [GTGCAC_negctrl_site213],7.79 ± 0.87
21,CGTTTGGTACACGTAGTGTTTTCGTTTGAATGTACC [GTGCAC_negctrl_site201],7.91 ± 0.57
22,TTTAATTTTCCCTTCACACATAATATATATCTGTAT [CACACA_site5370],7.93 ± 0.59
23,AAAAGGAACAGACACACACACATATATAAATATGTA [CACACA_site7656],7.54 ± 0.49

row,Sequence,gcPBM binding intensity (ln)
1,TAACACTTTTTTTTTCGTACATATATTATATATATA [XGTACX_site5470],8.73 ± 0.52
2,AAATAGACATAAAAAGGTACACAAATTGTGTATTAA [XGTACX_site527],7.86 ± 0.41
3,TTTTTTTATATTATACGCACTAATATATATATATAT [XGTACX_negctrl_site40],9.79 ± 0.36
4,TTACTTGTTTATTTTTTTTTTTTTTTTTTTTTTGTT [TGCATGCA_negctrl_site103],7.17 ± 0.27
5,TAATGGAGAAAATAATGTACTTAGATATTTGTTCTA [XGTACX_site6312],7.38 ± 0.45
6,TTTAAATATTTTATAGCATGCTACCAATATGTATAT [TGCATGCA_site291],7.79 ± 0.49
7,AAGAACAAACAAAATAGTACAATATATATATATATA [XGTACX_site4258],9.7 ± 0.58
8,CATATATAGATATATACACACATATAGATTTTCTTT [CACACA_site6797],7.54 ± 0.42
9,AACTATAATTAAAGGATGCACTTGAAGGCATTTCAA [GTGCAC_site9689],7.85 ± 0.44
10,TATTCATAACAATGATGTACATATATTTTTTTTTTC [XGTACX_site5619],7.54 ± 0.47
11,AAAAAAAAAAAAAAAAAAAAAAAAAAAGATTATGAG [CACACA_negctrl_site1088],9.76 ± 0.071
12,TATAAAATACTGTATCGATGGGGGAGGGCGCAGGGG [TGCATGCA_negctrl_site250],9.87 ± 0.028
13,TCAAATGTATATAATTGTACTTATCCTTTTCATTTT [XGTACX_site4879],7.71 ± 0.63
14,AAAAATTAGAAACACACACACATATATATATATATT [CACACA_site1042],8.02 ± 0.25
15,TTTTAAGTTTTTGAATGTACGTAATTTGTAAATTCT [XGTACX_site2448],7.71 ± 0.38
16,ACATATATATTTATATGTACATATATTTATATATAT [XGTACX_site7469],8.03 ± 0.37
17,AAAAATATTTAAAATACACACATATCTATAATATAT [CACACA_site7032],7.51 ± 0.47
18,GTGGTATAAATTTTATGTACTTAATAACTCATTAAT [XGTACX_site5555],7.79 ± 0.28
19,AAATCCATATAGGATTGTACATATATTATATATATA [XGTACX_site8818],8.46 ± 0.39
20,CAAAATGTTAAAGATACACACCTAACAAACACAAAA [CACACA_site4685],7.99 ± 0.47
21,AATTCTTTACTATTCACACATATAAATATTCACTTT [CACACA_site4886],8 ± 0.7
22,AAAAAAAAAAAACACACACACACAAATACATACACA [CACACA_site706],8.04 ± 0.16
23,TTTAATTTATATAATGATATTAAGTTGGTTATTAGG [CACACA_negctrl_site329],7.4 ± 0.44

row,Sequence,gcPBM binding intensity (ln)
1,ATATAGTTTCACATGTGTACATAAAAATACACTTGT [XGTACX_site3339],7.93 ± 0.26
2,ACAAAAATGAGATGGTGTACGCACAAATAAATAATA [XGTACX_site5221],8.74 ± 0.45
3,AAATATTTATATGTTACACACTGTTTATAATTTTCT [CACACA_site4868],7.5 ± 0.69
4,CAATGTATTTAGAATACATGCATATTTTCATAATGT [TGCATGCA_site221],7.55 ± 0.57
5,AATTATGCACAAATCACACATATAAAATAAAAAGTG [CACACA_site4474],10.3 ± 0.79
6,CTCATCCTTACATACACACACATATATTTATTTATA [CACACA_site6202],8.21 ± 0.33
7,AAATTATAGAATCATTGTACTTTTTTTTTTTTTTTT [XGTACX_site1280],8.69 ± 0.38
8,ATAATAACTTGTAAGGTGCATTTTATGTTTTCTTAA,10.1 ± 0.41
9,TATGCTTCAAAATTGTGTACATATATAATATATTAT [XGTACX_site6760],7.95 ± 0.38
10,TTAATAATTATAACATGTACATACACTAAATTTTTT [XGTACX_site8953],8.03 ± 0.48
11,CAAATATATATTTATTGTACATATTGTTTATATGGT [XGTACX_site5246],7.63 ± 0.4
12,CATCCAAAAATATTATGTACTAAATTTGGATGTATT [XGTACX_site3954],7.43 ± 0.52
13,TATAAAATTATGTGTACACAAATATAACTTTTCTTT [CACACA_site5554],8.24 ± 0.52
14,AAAATATTTCTTCTTTGTACTTATATATATTTAATT [XGTACX_site5446],7.95 ± 0.71
15,TATTCATATTCCAAGTGTACACATAAATCCCTAATA [XGTACX_site4131],7.96 ± 0.43
16,TACTTACCTATAATAACACACAAGAAAAAAATAAAA [CACACA_site6616],7.93 ± 0.61
17,AAATAATATCATAAATGTACATATATCATATTATTA [XGTACX_site5372],7.55 ± 0.3
18,AACACCAAACTAAATGTACACACATACATAAATATA [CACACA_site8298],8.04 ± 0.25
19,AATATAAACACAAACACACACATATATATATATATA [CACACA_site4307],9.49 ± 0.45
20,TTATTTAAACAAATCACACACAAATATAAATACATA [CACACA_site5158],7.68 ± 0.3
21,AGGTTGAATATATATTTGTGATTATATTATTTTATT [CACACA_negctrl_site778],7.46 ± 0.53
22,TATATATATATATAATGTACAAACTCCTTTATATAT [XGTACX_site4545],9.2 ± 0.52
23,CCATGTCAAACATTTGCACACAAAAAAATAAAAATT [CACACA_site4546],9.46 ± 0.14

row,Sequence,gcPBM binding intensity (ln)
1,GTTTTTTTTATATATTGTACAAATAATATATTATAT [XGTACX_site29],8.28 ± 0.67
2,TCATTCAAAAAAAATCAACACACAGTTACATAGCTC [CACACA_site8700],7.71 ± 0.73
3,TTTTAAAACTACATTGGTACACAATAAAAAAAAAAA [XGTACX_site2793],8.04 ± 0.71
4,TTTTAAAAAAAAAAAATAAATAAATAAGATATTATC [CACACA_negctrl_site1791],7.34 ± 0.57
5,TCATATATATTATACACACACATATATAAATATATA [CACACA_site967],7.87 ± 0.54
6,AAAAAAAAAAAAAAAGCACACATATAAATATGAATA [CACACA_site8391],8.86 ± 0.35
7,ATTCTAAATATGTATATACACACTTTTAATATTCAT [CACACA_site4118],7.92 ± 0.6
8,TTTTTTATTTAAAGTAGTACTTTTTAGAAAACAAAA [XGTACX_site6759],7.68 ± 0.29
9,TTATTTTAAATTAACACATGCATAATATATGTATAT [TGCATGCA_site597],7.78 ± 0.47
10,TTTATGAAACAGTGCACACATAAAAATAAATACATA [CACACA_site5631],10.6 ± 0.59
11,AAAAAAATTTTAAAATGTACAAATTTTAATATATAT [XGTACX_site7628],7.75 ± 0.56
12,TTTTCAAAAATATACACACACATAAATATATGTATA [CACACA_site777],7.55 ± 0.49
13,TTATGAATATTGATGTATAAAAAAATATATATGTTA [XGTACX_negctrl_site390],7.74 ± 0.36
14,AAAGGTTTGCGTTGTGTGCACAAAATAAATATATAA,10.69 ± 0.071
15,GATATATAACTTTTAACACACAAAAAAAAAAAAAAT [CACACA_site7653],7.92 ± 0.29
16,GAAAATTCATAAAAATGTACTTATTATATTATTTAT [XGTACX_site2169],7.45 ± 0.49
17,TAAAATTATGTAATAACACACATATACAATACATAT [CACACA_site1236],7.75 ± 0.61
18,ATATATATATAAAGGAGTACATACATTAAAAAAAAA [XGTACX_site1095],8.97 ± 0.042
19,TCTTATTTAAAAATAGCACACATTATATATATATAT [CACACA_site8916],9.44 ± 0.26
20,AAAAAACATACATACACACACATAAATATATATATT [CACACA_site2699],7.77 ± 0.44

# Reference: the supplement of paper PMC11417369
